# Results published in the BET-seq Pho4 binding data (Le et al. 2018).
# The other results are listed elsewhere or left out. The energies were worked out here from pooled read counts, against the library average; single values are noisy.
# Biological target: T1, Pho4 (S. cerevisiae) (UniProt P07270)
# T1 sequence: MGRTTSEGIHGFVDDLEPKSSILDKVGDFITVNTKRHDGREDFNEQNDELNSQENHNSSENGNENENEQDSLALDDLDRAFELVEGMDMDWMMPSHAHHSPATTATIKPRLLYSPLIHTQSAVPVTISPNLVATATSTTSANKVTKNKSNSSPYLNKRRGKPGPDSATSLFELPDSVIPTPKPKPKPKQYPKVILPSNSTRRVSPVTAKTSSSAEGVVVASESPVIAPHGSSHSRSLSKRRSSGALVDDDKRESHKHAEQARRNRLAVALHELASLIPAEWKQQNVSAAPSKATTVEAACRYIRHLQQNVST
# Assay: relative binding free energy (BET-seq); higher = weaker binding
# Settings: reference: library average
row,Sequence,relative binding free energy
1,TGTGTCACGTGGTCAG,-0.17 kcal/mol
2,GTCGTCACGTGGTTTG,0 kcal/mol
3,TTTTACACGTGCTTTG,0.01 kcal/mol
4,TTAGTCACGTGTGTCA,0 kcal/mol
5,TTAATCACGTGTCAGG,0.16 kcal/mol
6,TGCTGCACGTGTTTGT,0.01 kcal/mol
7,ATCTACACGTGGTCGT,0.27 kcal/mol
8,TACTGCACGTGTATTT,0.04 kcal/mol
9,AATATCACGTGTAGTT,0.14 kcal/mol
10,GTGTTCACGTGGAAAA,0.54 kcal/mol
11,GCGGGCACGTGGTTTA,-0.06 kcal/mol
12,AGGCCCACGTGTGTGT,-0.12 kcal/mol
13,GCGCACACGTGGGTGT,-0.22 kcal/mol
14,ATGTGCACGTGCGGAT,-0.08 kcal/mol
15,CTGTGCACGTGGTGTG,-0.13 kcal/mol
16,GGCGTCACGTGGGCGG,-0.05 kcal/mol
17,TTGGGCACGTGGACTG,-0.14 kcal/mol
18,GGTATCACGTGTAGTT,0.24 kcal/mol
19,TTTTGCACGTGGGATT,-0.02 kcal/mol
20,CTGTTCACGTGGTATG,0.14 kcal/mol
21,GGGCGCACGTGGGTAG,-0.28 kcal/mol
22,CTTTTCACGTGTGTAA,0.43 kcal/mol
23,CGTAACACGTGGAGGT,-0.07 kcal/mol

row,Sequence,relative binding free energy
1,CTGTGCACGTGAGAGG,0.24 kcal/mol
2,ATTCTCACGTGGGTAG,0 kcal/mol
3,GATGGCACGTGGCTGT,-0.1 kcal/mol
4,TGGCTCACGTGGTATT,0.12 kcal/mol
5,GTACTCACGTGAGTTT,0.21 kcal/mol
6,CGATTCACGTGTGAGG,0.22 kcal/mol
7,CTGGTCACGTGCGTGT,-0.06 kcal/mol
8,ATGTGCACGTGGCGCG,-0.18 kcal/mol
9,TGTTGCACGTGGAAAA,0.03 kcal/mol
10,GTCTTCACGTGTCTTT,0.49 kcal/mol
11,ATGATCACGTGGGGAG,-0.09 kcal/mol
12,TGTGTCACGTGATTGG,0.21 kcal/mol
13,TTAGTCACGTGGAGCA,0.09 kcal/mol
14,TAATTCACGTGCTGGG,0.24 kcal/mol
15,AGGGTCACGTGCATTA,0.1 kcal/mol
16,GGTTTCACGTGGTCCG,0.28 kcal/mol
17,AATAGCACGTGTGTAA,-0.12 kcal/mol
18,GTTGGCACGTGGGATG,-0.12 kcal/mol
19,GTTGCCACGTGGTTAG,-0.09 kcal/mol
20,CGGTTCACGTGTTATC,0.41 kcal/mol
21,CAGGGCACGTGGTTGG,-0.17 kcal/mol
22,TGGTGCACGTGATGCT,0.03 kcal/mol
23,GTTATCACGTGATGGG,0.23 kcal/mol

row,Sequence,relative binding free energy
1,TATTGCACGTGAAGTA,0.25 kcal/mol
2,GGGGTCACGTGCCTTG,0.12 kcal/mol
3,TCTGGCACGTGAAAGG,0.16 kcal/mol
4,ATGTTCACGTGTCAGA,0.26 kcal/mol
5,GGGGGCACGTGTGTTC,-0.01 kcal/mol
6,AAGTTCACGTGGGCAG,0.1 kcal/mol
7,GTAAGCACGTGGATGT,0.03 kcal/mol
8,TAGGGCACGTGTGCCG,-0.14 kcal/mol
9,ATTTGCACGTGAACGG,0.22 kcal/mol
10,TGGTTCACGTGGGCCG,0.24 kcal/mol
11,TTATTCACGTGTCCTT,0.35 kcal/mol
12,TGTCTCACGTGTGGCT,0.24 kcal/mol
13,CGTGTCACGTGTGGTG,0.18 kcal/mol
14,AGATTCACGTGAAAGG,0.24 kcal/mol
15,GTAGGCACGTGGGTAG,-0.19 kcal/mol
16,GTATACACGTGGTTGG,-0.02 kcal/mol
17,GAGGGCACGTGGAAGG,0.01 kcal/mol
18,TATGTCACGTGTGGAA,0.15 kcal/mol
19,TGTTGCACGTGGTACA,-0.13 kcal/mol
20,GAGTTCACGTGGGATG,0.26 kcal/mol
21,TAGGGCACGTGGCGTG,-0.27 kcal/mol
22,AGGGACACGTGCGTTG,-0.05 kcal/mol
23,GTCGACACGTGTGTGC,0.23 kcal/mol

row,Sequence,relative binding free energy
1,TAAGTCACGTGAGGAG,0.35 kcal/mol
2,GTGTGCACGTGTCTGA,0.03 kcal/mol
3,GTATTCACGTGTGTAG,0.23 kcal/mol
4,CAAAGCACGTGTGGGT,0.05 kcal/mol
5,ATCGTCACGTGAGATG,0.35 kcal/mol
6,AGTATCACGTGTCGGG,0.14 kcal/mol
7,AGGGACACGTGTGCTG,0.03 kcal/mol
8,TGAAACACGTGGGGTA,-0.1 kcal/mol
9,GTGATCACGTGTTATA,0.07 kcal/mol
10,GTCGACACGTGGTTGA,0.02 kcal/mol
11,GGTCGCACGTGATGGG,0.04 kcal/mol
12,AAAGGCACGTGAGGTG,-0.03 kcal/mol
13,TGTAACACGTGGTGAT,-0.08 kcal/mol
14,TATATCACGTGATATT,0.18 kcal/mol
15,TGCGGCACGTGCTTTA,-0.02 kcal/mol
16,TTGTGCACGTGTACTT,-0.1 kcal/mol
17,GTGGTCACGTGTGCTT,0.22 kcal/mol
18,GTTTGCACGTGCATCG,0.18 kcal/mol
19,TTCGGCACGTGGGAAA,-0.09 kcal/mol
20,CTTTTCACGTGTTGGT,0.19 kcal/mol
21,AGATGCACGTGTGCGG,-0.05 kcal/mol
22,TTTTCCACGTGGTATT,0.12 kcal/mol
23,GTAGACACGTGTGTTC,0.07 kcal/mol

row,Sequence,relative binding free energy
1,TGCAGCACGTGAGGGA,0.15 kcal/mol
2,GTATACACGTGGGTTT,-0.02 kcal/mol
3,ATGATCACGTGGTACG,0.06 kcal/mol
4,TATTTCACGTGTGGTC,0.37 kcal/mol
5,GTCGCCACGTGAGGGG,0.19 kcal/mol
6,GCGGTCACGTGAGTGA,0.3 kcal/mol
7,ATACGCACGTGAAGTG,0.17 kcal/mol
8,GGTGACACGTGATGGA,0.19 kcal/mol
9,GGGATCACGTGGTTTG,0.15 kcal/mol
10,AAGGGCACGTGTTGGC,-0.06 kcal/mol
11,ATTTACACGTGCTGTG,0.08 kcal/mol
12,ATGTTCACGTGTCAGT,0.07 kcal/mol
13,TTCGACACGTGGTGTA,-0.09 kcal/mol
14,ATTAACACGTGGGTCT,-0.21 kcal/mol
15,AGCGTCACGTGTTTGT,-0.03 kcal/mol
16,CTCTGCACGTGAGGGG,0.15 kcal/mol
17,GCTTCCACGTGGGTGT,-0.02 kcal/mol
18,GGAACCACGTGTGGTT,0.09 kcal/mol
19,ATTGTCACGTGTTTGG,0.08 kcal/mol
20,GTTATCACGTGGTGTT,0.12 kcal/mol
21,TGGTGCACGTGGCAGG,-0.05 kcal/mol
22,GTCGACACGTGTGGTG,0.05 kcal/mol
23,GGCGGCACGTGTATTT,0.06 kcal/mol
